Out of some 110,000 compounds screened, about 230 (0.21%) showed an effect of 50% or more. The list shows a part of the results.
molecular target: DPAP1 (Plasmodium falciparum, UniProt Q8IIJ9); assay: primary screen, percent inhibition; read by cleavage of a fluorogenic dipeptide substrate; higher = more effect of the substance; set-up: species or system P. falciparum D10 trophozoite lysates; single well
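Note: 30 min substrate incubation versus DMSO and 10 µM JCP410 controls.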

Sequence of DPAP1 (Q8IIJ9 whole entry, looked up): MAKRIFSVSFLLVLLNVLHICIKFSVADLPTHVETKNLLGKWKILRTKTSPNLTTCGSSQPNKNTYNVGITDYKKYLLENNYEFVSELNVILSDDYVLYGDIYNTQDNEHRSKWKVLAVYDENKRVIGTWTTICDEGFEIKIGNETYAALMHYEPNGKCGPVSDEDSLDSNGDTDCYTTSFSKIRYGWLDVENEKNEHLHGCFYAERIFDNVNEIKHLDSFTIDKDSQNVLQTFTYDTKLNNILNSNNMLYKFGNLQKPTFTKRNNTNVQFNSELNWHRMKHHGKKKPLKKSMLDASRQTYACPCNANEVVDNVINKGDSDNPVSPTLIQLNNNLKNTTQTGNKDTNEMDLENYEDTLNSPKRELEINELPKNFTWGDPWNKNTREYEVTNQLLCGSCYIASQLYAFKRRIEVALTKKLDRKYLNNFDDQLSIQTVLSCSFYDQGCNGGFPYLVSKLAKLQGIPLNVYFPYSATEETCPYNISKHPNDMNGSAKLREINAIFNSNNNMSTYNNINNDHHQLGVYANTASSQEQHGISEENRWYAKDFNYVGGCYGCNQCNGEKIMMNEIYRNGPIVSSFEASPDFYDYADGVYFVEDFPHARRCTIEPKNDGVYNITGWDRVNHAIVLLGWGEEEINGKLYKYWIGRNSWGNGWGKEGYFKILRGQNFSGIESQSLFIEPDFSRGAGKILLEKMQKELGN

| Compound | % Inhibition @ 10 uM |
| --- | --- |
| Cc1c(/C=C/C(=O)c2ccccc2O)cnn1C | -0.603% |
| CCCOc1ccccc1C1C2=C(O)CC(C)(C)CC2=NC(C)=C1C(=O)OC(C)C (centres unmarked) | -6.74% |
| COc1cc(C(=O)Nc2ccccc2C)cc(OC)c1OC | -1.52% |
| Cc1cccc(C)c1NC(=O)Cc1cccs1 | 4.12% |
| COc1ccc(NC(=O)c2ccccc2Cl)c(OC)c1 | -7.02% |
| Cn1c(=O)c2sccc2n2c(CCCC(=O)N3CCN(Cc4ccc5c(c4)OCO5)CC3)nnc12 | -2.44% |
| CCCN1C(=O)c2cc(C(=O)NCCc3cccc(C)c3)ccc2C1O (centres unmarked) | 1.38% |
| CN(C1CCCC1)C1CCN(C(=O)CNC(=O)/C=C/c2ccccc2)CC1 | -6.64% |
| O=S(=O)(c1ccc(F)cc1)N1CCc2ccccc21 | -0.351% |
| C[C@H](CC(NC(=O)c1ccc(-c2ccc(C(C)(C)C)cc2)cc1)C(=O)NCC#N)c1ccccc1 (some centres unmarked) | -3.48% |
| Cc1ccc(-c2csc(Nc3ccc(F)cc3)n2)cc1 | 1.41% |
| CCN(Cc1ccccc1)C(=O)c1cc(-c2ccc(Cl)cc2)[nH]n1 | 3.8% |
| O=C(Nc1cccc(Cl)c1)Nc1ccccc1C(F)(F)F | -4.01% |
| Cc1ccc(C)n1CCN1CCNCC1 | 1.25% |
| CCc1c(C)nc2c(-c3ccccc3OC)c(C)nn2c1O | 1.62% |
| Cc1nc2c(C)cccc2c2c1CC(C)O2 (centres unmarked) | -4.35% |
| O=C1c2ccccc2C(=O)N1CCCn1nnc2sc3c(c2c1=O)CCCC3 | -4.54% |
| CCN1CCC(NCCN2CCCCC2)CC1 | 1.57% |
| COc1ccc2c(Cl)c(C(=O)N3CCCCC3)sc2c1Cl | 3.42% |
| Cc1cc(C)n(-c2nnc(C)n2/N=C/c2cc(Br)ccc2OCc2ccccc2)n1 | -4.85% |
| O=C(O)c1ccccc1C(=O)Nc1cccc(O)c1 | -2.62% |
| Clc1cccc(-n2nnnc2C2(N3CCOCC3)CCCCC2)c1 | 4.42% |

| Compound | % Inhibition @ 10 uM |
| --- | --- |
| CCn1cc(CCCC(=O)NC2CCN(Cc3ccccc3)CC2)c2ccccc21 | 10% |
| CCCCN(CCNC(=O)c1c2c(nc3ccccc13)C(=O)N(C1CCCCC1)C2)Cc1ccco1 | 10.9% |
| COC(=O)c1ccc(-n2nnc(-c3nsc(NC(=O)c4ccccc4)n3)c2C)cc1 | 4.23% |
| CCc1ccc(OCCSc2nc(-c3cccs3)nc3cc(=O)[nH]n23)cc1 | 0.234% |
| Cc1onc(-c2ccccc2Cl)c1C(=O)Nc1ccc(Cl)c(Cl)c1 | -2.91% |
| Cc1ccc2nc(Cl)c3cc(C(=O)N4CCN(c5ccccn5)CC4)sc3c2c1 | 3.2% |
| COc1cccc(CNCCO)c1OCc1ccccc1 | -0.519% |
| COc1ccc(C2C3=C(Nc4ncnn42)c2ccccc2OC3c2cccs2)cc1 (centres unmarked) | -5.19% |
| COc1ccc(-c2cc(C(=O)Nc3cc(C)n(Cc4ccc(Cl)cc4)n3)no2)cc1 | 0.723% |
| CCOC(=O)N1CCC(NC2CCCc3ccccc32)CC1 (centres unmarked) | -1.82% |
| O=C(C1C2CCCCC21)N(CCN(Cc1ccccc1)C(=O)C1C2CCCCC21)Cc1ccccc1 (centres unmarked) | 1.5% |
| CCc1c(C)sc2nc(C)n(-c3ccc(OC)cc3)c(=O)c12 | -5.6% |
| CCOC(=O)c1nn(-c2ccccc2)c2c1CCc1occc1-2 | -8.98% |
| Cc1ccc(NC(=O)c2sc(Cl)nc2C)c(C)c1 | 3.24% |
| CCOC(=O)c1c(C)c(-c2ccccc2)n(CC(=O)NCc2ccc3c(c2)OCO3)c1C | -3.44% |
| CNS(=O)(=O)c1cn(CC(=O)NCc2ccccc2)cc1S(=O)(=O)NC | -11.6% |
| Cc1ccccc1NC(=O)c1cccnc1 | 0.605% |
| CCc1n[nH]c(SCc2cccc(CSc3n[nH]c(CC)n3)c2)n1 | 1.63% |
| O=C(NCc1ccc(Cl)cc1)c1cc2c(s1)CS(=O)(=O)C2 | -5.89% |
| CCOc1cc(C2C(C(=O)OC)=CN(CCOC)C=C2C(=O)OC)ccc1O | 0.408% |
| CCN1CCN(C2CC(=O)N(c3ccc(OC(F)(F)Cl)cc3)C2=O)CC1 (centres unmarked) | 2.49% |
| O=C(NCc1cccnc1)c1cc(-c2ccc3c(c2)OCO3)on1 | -1.21% |

| Compound | % Inhibition @ 10 uM |
| --- | --- |
| Cc1nn(-c2ccccc2)c2c1C(c1ccc3c(c1)OCO3)C(C#N)=C(N)O2 (centres unmarked) | -0.902% |
| CC(C)CC(=O)N1CCN(C2CCN(Cc3ccccc3)CC2)CC1 | -4.7% |
| C=CCOc1ccc(CNCc2cccs2)cc1OC | 0.163% |
| O=C(N[C@H](/C=C/S(=O)(=O)c1ccccc1)CCc1ccccc1)C(CSCc1ccccc1)CSCc1ccccc1 | -8.82% |
| O=C(O)C1CCCCC1C(=O)N1CCN(c2ccc([N+](=O)[O-])cc2)CC1 (centres unmarked) | -6.36% |
| CCOC(=O)c1cnn2c1NC(c1ccccc1)CC2C(F)F (centres unmarked) | -0.186% |
| CC(C)c1ccc(S(=O)(=O)Nc2ccc3oc(=O)sc3c2)cc1 | 1.13% |
| Cc1nn(C(C)C(=O)N(C)Cc2ccccc2)c(=O)c2c1sc1ccccc12 (centres unmarked) | -5.78% |
| CCc1ccc(CNC(=O)Cn2nc(C)n3c(cc4cc(F)ccc43)c2=O)cc1 | 1.68% |
| CCOC(=O)N1CCN(S(=O)(=O)c2ccc(OC)c(C)c2)CC1 | 6.65% |
| CCCCSCC(O)CN1CCOCC1 (centres unmarked) | 0.132% |
| N#Cc1cc2c(nc1SCC(=O)Nc1nccs1)CCC2 | 3.72% |
| Cc1ccc(OCC(=O)Nc2ccc(S(=O)(=O)N3CCOCC3)cc2)c(Br)c1 | 3.5% |
| Cc1ccc(Cn2c(-c3cccs3)noc2=O)cc1 | 1.39% |
| CCOC(=O)N1CCC(NC(=O)CCc2c(C)nc3c(c2C)c(=O)n(C)c(=O)n3C)CC1 | -3.33% |
| O=C1N/C(=C/c2cc(Br)ccc2O)C(=O)N1c1cccc(Cl)c1 | 3.81% |
| CCn1c(C(=O)O)c(CNCc2ccccc2Cl)c2ccc(C)cc21 | 4.41% |
| O=C(Nc1ccc(S(=O)(=O)Nc2nccs2)cc1)Nc1ccc(Cl)c(Cl)c1 | -7.09% |
| Cc1nn(CCC#N)c(C)c1Br | 2.38% |
| CCOc1cc2c(cc1/C=C1/NC(=O)N(CC(=O)Nc3cccc(C)c3)C1=O)OCO2 | -12.5% |
| COc1cc(C2CC3=Nc4ccccc4NC(c4ccncc4)C3=C(O)C2)cc(OC)c1OC (centres unmarked) | -4.6% |
